# About 540 (0.36%) of roughly 150,000 compounds showed an effect of 50% or more. The list shows a part of the results.
# Tested on: Plasmodium falciparum
# Assay: Primary screen in NF54 nanoGlo assay, in single point, at 2uM, 72h; a lower Z score goes with more inhibition
# Format: functional, Erythrocyte
# Conditions: timepoint 72 hour
Structure (SMILES),% Inhibition [%],Z score
CCc1cccc2c([C@H](CC(=O)NCc3ccco3)c3ccc(OCc4ccccc4)cc3)c[nH]c12,-9,1.02
Cc1cnc(NC[C@H]2CCCCS2(=O)=O)nc1C,-17,2.12
Cc1cnn(CCN[C@@H](C)C(=O)NCC(F)(F)F)c1,6,-0.82
O=C(Nc1ccc2c(c1)OCO2)N1CCO[C@H](c2cccnc2)C1,-9,1.36
Fc1ccc(CN[C@@H](Cc2ccc(Cl)cc2)c2ccccn2)nc1,-10,1.51
COCCN1CCN(C2CCN(c3ccc(-n4cccn4)cc3)CC2)CC1,-2,0.25
COc1ccccc1C1c2[nH]c3ccccc3c2C[C@H]2C(=O)N(CCc3ccc(F)cc3)CC(=O)N12 (some centres not stated),6,-0.71
CCC(C)(NC(=O)C1CCCC(C(=O)O)C1)c1nc(C)cs1 (configuration not stated),0,-0.02
O=C(NCCNc1ncccn1)c1ccccn1,-10,1.58
Cc1ccc(C(=O)N2CCCN(c3cc(=O)n(C)c(=O)n3C)CC2)cc1F,-4,0.64
COc1ccnc(CN(C)Cc2cnn(C(C)C)c2)c1OC,-7,0.98
CCOc1cccc(CNC(=O)[C@@H]2CCN(C)S2(=O)=O)c1,-31,3.35
CS(=O)(=O)CC1CCCCN1C(=O)CC1C=CCCC1 (configuration not stated),-2,0.31
O=C(N[C@H](c1cnc2ccccc2c1)C1CC(O)C1)[C@H]1CC[C@@H](O)CC1 (some centres not stated),-5,0.45
Cc1cnc(CCN(C)Cc2nc(-c3cccs3)n[nH]2)s1,-2,0.23
Cc1cc2c(c(=O)n(-c3ccc(F)cc3)c(=O)n2CC(=O)Nc2ccccc2Cl)n1C,-6,0.57
COc1ccc(-c2c(-c3ccccc3)ncn2CCN2CCCC2=O)c(OC)c1,-3,0.5
CC(=O)N1C[C@H]2CC[C@@H](C1)N(Cc1cnc(-c3ccc(Cl)cc3)nc1)C2,-8,1.24
CN1CC(c2nc(-c3cccc(Cl)c3)no2)C(C(F)(F)F)C1 (configuration not stated),-2,0.36
CCn1cc(CCn2ncc(C(F)(F)F)cc2=O)cn1,-8,0.98
CCCCS(=O)(=O)N1CC[C@H](O)[C@@H](O)C1,-2,0.32
COCc1ccc(C(=O)N2CC3CCCC3C2)o1 (configuration not stated),-14,1.82

Structure (SMILES),% Inhibition [%],Z score
CCCc1csc(NC(=O)NC[C@H](O)c2ccsc2)n1,-10,1.49
NC(=O)CO[C@@H]1CO[C@H]2[C@@H]1OC[C@@H]2NC(=O)c1cccs1,29,-3.26
CC1C(O)CC2CCC1N2C(C(=O)O)c1ccc(F)cc1 (configuration not stated),-4,0.46
COC[C@H](C)NC(=O)CCc1c(C)noc1C,1,-0.12
CN(Cc1c[nH]nc1C(C)(C)C)[C@@H]1COC[C@H]1O,-3,0.37
CN(C)CCc1nnc(NC(=O)Cc2cccnc2)s1,-7,1.31
CCN(CC)S(=O)(=O)c1ccc(N2CCOCC2)c(NC(=O)[C@@H]2CCCc3ccccc32)c1,-2,0.35
CCOC(=O)C1(NCCn2cccn2)CCCCC1,-7,1.04
COc1ccc(-c2cn3c(n2)CCC3)cc1,-5,0.43
CC(C)CN=C1NC[C@H]2CN(C(=O)OC(C)(C)C)CCN12,0,-0.06
Cc1ccc(CN2CCCn3nc(C(=O)NCCC(=O)NCCN4CCOCC4)cc3C2=O)cc1,-3,0.43
Cc1cc(NC(=O)C(C)(C)S(C)(=O)=O)ccc1N1CCCC1,-7,1.1
CCc1nc(CNc2cc(C(=O)OC)cc(F)c2C)n[nH]1,-9,1.4
O=C(Cn1cnc2ccccc21)N1CCCC[C@@H]1CCn1ccnc1,-3,0.48
CN1C(=O)[C@](C)(C(=O)N2CCOCC2)Oc2cccnc21,-1,0.13
Cc1ccc(CC#N)cc1Br,-7,0.69
CCN(CC)S(=O)(=O)NC(=O)CCc1ccc(Cl)s1,-5,0.57
Cc1cccc(Oc2nc(N3CCCCC3)nc3c2CN(C(=O)OCc2ccccc2)CC3)c1,39,-3.78
CS(=O)(=O)C1(C(=O)N(Cc2ccccc2)C2CC2)CCCC1,8,-1.62
Cc1cc(C)cc(NC(=O)C23CCC(C)(C(=O)C2=O)C3(C)C)c1 (configuration not stated),9,-1.39
Cc1ccc(OCC(=O)NCCCN(Cc2cccnc2)C(=O)OC(C)(C)C)c(C)c1,-1,0.12
Cn1cc(C(=O)N2C[C@@H]3CS(=O)(=O)C[C@@H]3C2)c(-c2ccoc2)n1,3,-0.33

Structure (SMILES),% Inhibition [%],Z score
CC(C)Cc1nc(C(=O)N[C@H]2Cc3ccccc3N(C)C2=O)cs1,6,-0.9
Cc1nn(C)c(C)c1C(=O)N1CCC(OCc2ncon2)CC1,-3,0.33
CCC(C)C1NC2(CCN(C(=O)c3ccc(C)cc3)CC2)N(C2CCN(Cc3ccccc3)CC2)C1=O (configuration not stated),2,-0.25
COc1ccc(CCN2C(=O)COCC2=O)cc1OC,36,-4.12
Cc1noc(C)c1CCC(=O)N[C@H]1CCc2c[nH]nc2C1,0,-0.08
CCn1cnnc1NC(=O)c1ccoc1C(C)C,-4,0.64
Cn1cnc(CNC(=O)[C@@H]2CCCC[C@@H]2N2CCCC2=O)c1,-9,1.06
Cc1cccc(NC(=O)[C@@H]2CCCN2CCCn2ccnc2C)n1,-5,0.64
Cc1nn(C(C)C)cc1-c1cccc(C(=O)N[C@@H](CC(C)C)C(N)=O)c1,-8,1.06
OC1CCCC(CNC(c2ccc(Br)cc2)C2CC2)C1 (configuration not stated),1,-0.12
CCOC(=O)N1CCN(C(=O)c2cn3c(n2)CC[C@H](c2ccccc2)C3)CC1,-10,1.01
C[C@@H](C1CC1)N(C)S(=O)(=O)Cc1ccc2nonc2c1,-9,1.49
COCc1nc([C@H]2CCOC2)cc(N(C)Cc2cc(C3CC3)[nH]n2)n1,3,-0.64
CNc1nc([C@H]2CCOC2)cc(N2CCN(Cc3nccn3C)CC2)n1,-7,0.8
COc1ccccc1C1CN(C(=O)c2ccc(C)cc2)CC1C(=O)N1CCOCC1 (configuration not stated),-21,1.85
O=C(Nc1ccc(Cl)cc1)c1ccc2c3c(cccc13)CC2,5,-0.63
Cc1noc(C)c1C(=O)Nc1ccc2c(c1)N(C)S(=O)(=O)N2C,6,-0.72
Cc1cc(C)cc(S(=O)(=O)N2CCN=C2N2CCN(C)CC2)c1,-9,1.02
CC(O)C1CCCN(C(=O)C2Cc3ccccc3CN2S(=O)(=O)c2cccs2)C1 (configuration not stated),-11,1.07
CNC(=O)[C@H](Cc1ccccc1)n1cc(C(=O)OC)c2nnc(O)c-2c1,-2,0.28
CCCN1CCC[C@H]1CNC(=O)c1nc[nH]c1C(F)(F)F,0,0
CCc1sc(C(=O)NCc2cccnc2N2CCOCC2)cc1C,-13,1.74

Structure (SMILES),% Inhibition [%],Z score
Cc1occc1C(=O)N[C@H]1CCCc2c1cnn2-c1ccc(C(C)(C)C)cc1,-11,1.36
CC1=CCN(C(=O)Nc2ccc(F)cc2)CC1,23,-2.59
COCC1(C(=O)N2CCNC[C@@H]2C)CCC1,5,-0.85
COc1cc(NC(=O)c2ccc3c(c2)OCO3)ccc1N1CCCCC1=O,-9,1.44
O=C(c1c[nH]nc1-c1ccoc1)N1CCOCC(F)(F)C1,-2,0.43
COc1cccc2c(N3CC[C@H](C4CCOCC4)C3)nccc12,-3,0.5
COc1ccc2c(c1)-c1nc(-n3ncc(C(=O)N4CCC(C(N)=O)CC4)c3C3CC3)ncc1CC2,-5,0.7
O=C(N[C@H](c1ccccn1)C(F)(F)F)c1cnn[nH]1,2,-0.37
CCNC(=NCCc1cccc(OC)n1)NCC,-1,0.07
O=C(O)c1cc(S(=O)(=O)Nc2cccc3c2CCCC3)c[nH]1,-2,0.48
O=C(NCc1cnc2n1CCCC2)[C@H]1CCO[C@@H]1c1cccnc1,0,0.01
CN1CC2(CCN(Cc3ccccn3)CC2)C[C@@H](c2ccccc2)C1=O,2,-0.45
O=C(NCc1ccccc1C(F)(F)F)C1CCN(c2cnc3nccnc3c2)CC1,-2,0.3
COc1ccc(C(=O)NS(C)(=O)=O)cc1OC,4,-0.58
O=C(N[C@H]1COCC[C@@H]1O)c1cncc(Cl)c1,-6,0.98
Nc1nc(NS(=O)(=O)c2ccccc2)cc2ncnn12,-33,3.85
COC(=O)C1CCN(C(=O)CN2CCCc3c(F)ccc(C)c32)CC1,3,-0.41
Fc1ccccc1CNC1C2CCOC2C12CCC2 (configuration not stated),-13,1.51
Cc1c(Cl)cccc1NC(=O)CCNc1ccc(C#N)nc1,-21,2.73
Cn1cc([C@]2(CNC(=O)C3(O)Cc4ccccc4C3)CCCO2)cn1,-9,1.56

# — ChEMBL document CHEMBL4888484, “Replenishing the malaria drug discovery pipeline: Screening and hit evaluation of the MMV Hit Generation Library 1 (HGL1) against asexual blood stage Plasmodium falciparum ,using a nano luciferase reporter read-out” (2022)
